# Source: ChEMBL document CHEMBL5606460, “ASAP - DENV-2 NS2B-NS3 protease fluorescence single point” (2024)
# In all, about 2,000 compounds went through this assay and about 110 (5.5%) showed an effect of 50% or more. This is one part of the list.
# Molecular target: Genome polyprotein (dengue virus type 2) (UniProt P29990)
# [1] = Thailand/16681/1984, Concentration 25.0 uM, Number of replicates 1.0
smiles,measurement,setting,value
CC(C)Nc1nc2cc(NC(=O)[C@@H](NC(=O)OC(C)(C)C)c3ccccc3)ccc2[nH]1,inhibition,"Thailand/16681/1984, Concentration 49.5 uM, Number of replicates 2.0, Standard deviation 1.6144805508061877 %",-4.38%
same,inhibition,"Thailand/16681/1984, Concentration 99.01 uM, Number of replicates 2.0, Standard deviation 0.9738051264803291 %",-3.44%
same,inhibition,"Thailand/16681/1984, Concentration 198.0 uM, Number of replicates 2.0, Standard deviation 1.1960694823819247 %",-2.77%
CC(=O)Nc1ccc(NC(=O)C2CCN(c3ccc(C=O)cc3)CC2)c(C(F)(F)F)c1,inhibition,[1],14.6%
CN(C)CCNC(=O)c1ccc(N2CCNCC2)nc1,inhibition,"Thailand/16681/1984, Concentration 49.5 uM, Number of replicates 2.0, Standard deviation 3.571913716868189 %",-4.62%
same,inhibition,"Thailand/16681/1984, Concentration 99.01 uM, Number of replicates 2.0, Standard deviation 2.0054637146250163 %",-3.89%
same,inhibition,"Thailand/16681/1984, Concentration 198.0 uM, Number of replicates 2.0, Standard deviation 1.2373052846154071 %",-1.98%
CCn1ncc(Cc2cc(OC)nc(N3CCNCC3)n2)c1F,inhibition,"Thailand/16681/1984, Concentration 49.5 uM, Number of replicates 2.0, Standard deviation 1.4530630100438908 %",-1.17%
same,inhibition,"Thailand/16681/1984, Concentration 99.01 uM, Number of replicates 2.0, Standard deviation 2.9455327966098612 %",-1.68%
same,inhibition,"Thailand/16681/1984, Concentration 198.0 uM, Number of replicates 2.0, Standard deviation 1.1187861286248701 %",-0.743%
O=C(Nc1ccc2c(c1)CNC2)c1cc(Cl)cc(C(F)(F)F)n1,inhibition,"Thailand/16681/1984, Concentration 99.5 uM, Number of replicates 2.0, Standard deviation 0.07984298981903766 %",98%
same,inhibition,"Thailand/16681/1984, Concentration 295.6 uM, Number of replicates 2.0, Standard deviation 0.03008678069059277 %",99.8%
Cc1cn(-c2cc(NC(=O)C3CCN(c4ccc(C=O)cc4)CC3)cc(C(F)(F)F)c2)cn1,inhibition,[1],12.1%
NCc1ccc(C[C@H](NC(=O)c2ccccc2)C(=O)Nc2cccc(C(N)=O)c2)cc1,inhibition,"Thailand/16681/1984, Concentration 49.5 uM, Number of replicates 2.0, Standard deviation 0.2094720287352659 %",-3.21%
same,inhibition,"Thailand/16681/1984, Concentration 99.01 uM, Number of replicates 2.0, Standard deviation 1.2712236353041253 %",-1.98%
same,inhibition,"Thailand/16681/1984, Concentration 198.0 uM, Number of replicates 2.0, Standard deviation 0.9103772804850719 %",-0.193%
COc1cccc2c(NCc3ccc(F)cc3)nccc12,inhibition,"Thailand/16681/1984, Concentration 49.95 uM, Number of replicates 2.0, Standard deviation 5.311619298096004 %",-8.98%
COc1ccc2nc(C(F)(F)F)nc(N3CCN(c4ccc(N)nc4)CC3)c2c1,inhibition,"Thailand/16681/1984, Concentration 49.5 uM, Number of replicates 2.0, Standard deviation 1.255766362906452 %",10.4%
same,inhibition,"Thailand/16681/1984, Concentration 99.01 uM, Number of replicates 2.0, Standard deviation 0.6332142520276719 %",22.8%
same,inhibition,"Thailand/16681/1984, Concentration 198.0 uM, Number of replicates 2.0, Standard deviation 1.6656488479471416 %",39.7%
Cc1cc(CO)c2cccc(CC(=O)N[C@@H](C)C(N)=O)c2n1,inhibition,"Thailand/16681/1984, Concentration 49.95 uM, Number of replicates 2.0, Standard deviation 0.6764350022386235 %",-6.74%
same,inhibition,"Thailand/16681/1984, Concentration 99.9 uM, Number of replicates 2.0, Standard deviation 0.17585957987303982 %",-4.59%
CC(C)(CO)NC(=O)c1cc(Cl)cc(NC(=O)Cc2cccc(N3CCOCC3)c2)c1,inhibition,"Thailand/16681/1984, Concentration 49.5 uM, Number of replicates 2.0, Standard deviation 3.685760784065816 %",-4.97%
same,inhibition,"Thailand/16681/1984, Concentration 99.01 uM, Number of replicates 2.0, Standard deviation 1.8930329501247494 %",-3.18%
same,inhibition,"Thailand/16681/1984, Concentration 198.0 uM, Number of replicates 2.0, Standard deviation 0.7981856150564074 %",-3.79%
Cc1cnccc1NC(=O)c1cnn2cc[nH]c(=O)c12,inhibition,"Thailand/16681/1984, Concentration 49.5 uM, Number of replicates 2.0, Standard deviation 4.773555265504345 %",-2.07%
same,inhibition,"Thailand/16681/1984, Concentration 99.01 uM, Number of replicates 2.0, Standard deviation 2.7954488173666587 %",-0.411%
same,inhibition,"Thailand/16681/1984, Concentration 198.0 uM, Number of replicates 2.0, Standard deviation 2.947044878020462 %",1.2%
O=Cc1ccc(N2CCC(C(=O)N[C@H]3CC4(CCCC4)Oc4ccccc43)CC2)cc1,inhibition,[1],3.14%
Cc1cc(C)n(CCCNC(=O)C2CCN(c3ccc(C=O)cc3)CC2)n1,inhibition,[1],12.7%
CNC(=O)c1cc(Cl)ccc1NS(=O)(=O)c1cccc(Oc2ccccc2)c1,inhibition,"Thailand/16681/1984, Concentration 49.5 uM, Number of replicates 2.0, Standard deviation 1.273206391645472 %",8.45%
same,inhibition,"Thailand/16681/1984, Concentration 99.01 uM, Number of replicates 2.0, Standard deviation 0.33776821571418564 %",23.8%
same,inhibition,"Thailand/16681/1984, Concentration 198.0 uM, Number of replicates 2.0, Standard deviation 0.06600533651594093 %",89.9%
CCc1nc(CNC(=O)[C@]2(c3ccc(F)cc3)CCCNC2)n[nH]1,inhibition,"Thailand/16681/1984, Concentration 49.5 uM, Number of replicates 2.0, Standard deviation 0.49799700461423274 %",-1.23%
same,inhibition,"Thailand/16681/1984, Concentration 99.01 uM, Number of replicates 2.0, Standard deviation 0.6482125452450617 %",-1.25%
same,inhibition,"Thailand/16681/1984, Concentration 198.0 uM, Number of replicates 2.0, Standard deviation 1.0139545093997464 %",-1.41%
O=C(O)c1cccc(NC(=O)c2cccs2)c1,inhibition,"Thailand/16681/1984, Concentration 49.5 uM, Number of replicates 2.0, Standard deviation 0.598805970566795 %",-0.317%
same,inhibition,"Thailand/16681/1984, Concentration 99.01 uM, Number of replicates 2.0, Standard deviation 0.5844804411504043 %",1.75%
same,inhibition,"Thailand/16681/1984, Concentration 198.0 uM, Number of replicates 2.0, Standard deviation 0.39251882639117147 %",2.34%
CC(C)(CNC(=O)C1CCN(c2ccc(C=O)cc2)CC1)c1cccc(Cl)c1,inhibition,[1],10.4%
O=C(O)c1cccc(NC(=O)c2ccncc2)c1,inhibition,"Thailand/16681/1984, Concentration 49.5 uM, Number of replicates 2.0, Standard deviation 1.179943882139058 %",-0.761%
same,inhibition,"Thailand/16681/1984, Concentration 99.01 uM, Number of replicates 2.0, Standard deviation 0.8155985855186833 %",-0.242%
same,inhibition,"Thailand/16681/1984, Concentration 198.0 uM, Number of replicates 2.0, Standard deviation 1.2181452324519455 %",1.11%
Cc1cc(C)nc(CCNC(=O)C2CCN(c3ccc(C=O)cc3)CC2)n1,inhibition,[1],10.6%
CC(C)(CO)NC(=O)c1cc(Cl)cc(NC(=O)c2ccc(CO)s2)c1,inhibition,"Thailand/16681/1984, Concentration 49.5 uM, Number of replicates 2.0, Standard deviation 0.042660723961363105 %",0.416%
same,inhibition,"Thailand/16681/1984, Concentration 99.01 uM, Number of replicates 2.0, Standard deviation 0.04734288058271109 %",2.52%
same,inhibition,"Thailand/16681/1984, Concentration 198.0 uM, Number of replicates 2.0, Standard deviation 0.687253929663976 %",3.51%
